Results from paper PMC4336329 (PLoS ONE, 2015).
The campaign covered roughly 310,000 compounds. About 2,200 (0.71%) showed an effect of 50% or more. The effect is printed as a negative number. Some of the results follow.

Target: human ether-à-go-go-related gene (hERG) potassium channel (human, UniProt Q12809)
Assay: primary screen, population patch clamp on CHO cells stably expressing hERG

Chain of human ether-à-go-go-related gene (hERG) potassium channel (Q12809 whole entry, looked up): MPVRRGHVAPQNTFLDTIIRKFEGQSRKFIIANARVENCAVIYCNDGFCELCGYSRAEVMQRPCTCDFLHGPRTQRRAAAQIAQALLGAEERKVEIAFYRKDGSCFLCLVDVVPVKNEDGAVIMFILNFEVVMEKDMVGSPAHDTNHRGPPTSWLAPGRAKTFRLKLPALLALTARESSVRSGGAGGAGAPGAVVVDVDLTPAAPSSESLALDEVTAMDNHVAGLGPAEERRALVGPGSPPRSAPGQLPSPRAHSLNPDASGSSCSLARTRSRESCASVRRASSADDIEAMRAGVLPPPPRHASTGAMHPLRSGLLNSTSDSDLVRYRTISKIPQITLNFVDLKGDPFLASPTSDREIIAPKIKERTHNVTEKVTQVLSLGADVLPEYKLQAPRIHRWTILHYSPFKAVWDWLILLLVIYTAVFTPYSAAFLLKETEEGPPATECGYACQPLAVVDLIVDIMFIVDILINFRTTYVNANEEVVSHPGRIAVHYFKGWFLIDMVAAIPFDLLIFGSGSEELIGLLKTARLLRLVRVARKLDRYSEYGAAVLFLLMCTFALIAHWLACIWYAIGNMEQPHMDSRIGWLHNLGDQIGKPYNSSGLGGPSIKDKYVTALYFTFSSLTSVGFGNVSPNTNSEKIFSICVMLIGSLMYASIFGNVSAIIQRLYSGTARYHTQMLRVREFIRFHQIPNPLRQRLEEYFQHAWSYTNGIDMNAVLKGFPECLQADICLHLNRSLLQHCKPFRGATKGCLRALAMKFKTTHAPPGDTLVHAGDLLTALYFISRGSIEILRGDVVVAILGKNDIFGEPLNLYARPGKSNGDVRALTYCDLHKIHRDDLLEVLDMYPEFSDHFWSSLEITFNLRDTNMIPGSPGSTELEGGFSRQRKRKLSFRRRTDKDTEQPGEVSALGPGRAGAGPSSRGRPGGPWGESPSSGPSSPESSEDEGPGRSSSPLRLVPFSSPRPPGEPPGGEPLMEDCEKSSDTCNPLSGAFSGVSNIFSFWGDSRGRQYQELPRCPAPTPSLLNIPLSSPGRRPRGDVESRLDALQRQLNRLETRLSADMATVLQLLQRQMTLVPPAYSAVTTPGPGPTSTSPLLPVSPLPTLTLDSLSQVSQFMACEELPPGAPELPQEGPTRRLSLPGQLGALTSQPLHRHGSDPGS

First: CCn1c(SCC(=O)NC(C)(C)C)nnc1-c1ccoc1C
Second: Cn1cnnc1SCC(=O)NC1CCCc2ccccc21 (stereo not drawn)
The “hERG current change (%, negative = inhibition) at 1uM” value of the first is lower: -9.4% for the first, 9.41% for the second.

Compared with `COc1ccccc1N1C(=O)CC(N2CCN(c3ccc(F)cc3)CC2)C1=O` (stereo not drawn), `O=C(CSc1nc2ccccc2[nH]1)N1CCN(c2ccccc2)CC1` is higher in “hERG current change (%, negative = inhibition) at 1uM” value: 7.06% for the first, 14.3% for the second.

Compared with `O=C(CCNC(=O)c1ccc(Br)cc1)Nc1ccc(S(=O)(=O)Nc2ncccn2)cc1`, `CCOc1ccc(NS(=O)(=O)c2cc(NC(=O)c3ccc(C)cc3)ccc2Cl)cc1` is lower in “hERG current change (%, negative = inhibition) at 1uM” value: 12.8% for the first, 11% for the second.

Going from `Cc1ccc(C(=O)O)cc1-c1ccc(C=C2C(=O)c3ccccc3C2=O)o1` to `O=C(O)c1ccc(N=Nc2c(-c3ccccc3)[nH]oc2=O)cc1`, the “hERG current change (%, negative = inhibition) at 1uM” value rises from 8.35% to 19.2%.

Compared with `CN(C)CCCNC(=O)CCC1CCCCC1`, `CCN(CCCNC(=O)C1CCC(=O)N1C1CCCC1)c1cccc(C)c1` (stereo not drawn) is higher in “hERG current change (%, negative = inhibition) at 1uM” value: 3.55% for the first, 3.73% for the second.

Going from `O=C(CNC(=O)N1CC(=O)Nc2ccccc21)Nc1ccc(F)c(Cl)c1` to `CC1C(=O)Nc2ccccc2N1C(=O)c1ccc(Cl)cc1` (stereo not drawn), the “hERG current change (%, negative = inhibition) at 1uM” value falls from 24% to 19.2%.

Compared with `CN(C)CCCN(Cc1cc2cc3c(cc2[nH]c1=O)OCCO3)C(=O)NC1CCCCC1`, `CC(OC(=O)CNC(=O)c1ccc2ccccc2c1)C(=O)N(C)C1CCCCC1` (stereo not drawn) is lower in “hERG current change (%, negative = inhibition) at 1uM” value: 15.7% for the first, 11% for the second.

First: c1cncc(-c2csc(-c3cccnc3)n2)c1
Second: Cc1cccc(CC(=O)Nc2cccnc2)c1
The “hERG current change (%, negative = inhibition) at 1uM” value of the first is higher: 12.9% for the first, 5.7% for the second.

Going from `Cc1cccc(NC(=O)c2cccc(S(=O)(=O)Nc3ccccc3C(=O)O)c2)c1` to `O=C(OCC(=O)N1CCc2ccccc21)c1cccc(S(=O)(=O)N2CCCc3ccccc32)c1`, the “hERG current change (%, negative = inhibition) at 1uM” value falls from 10.8% to -2.95%.

Going from `CCCCCCCC1CC(=O)C=C(C)C1C(=O)OCC` (stereo not drawn) to `CCCC1=C(C(=O)OCC)C(c2cc(Cl)cc(OC)c2OCc2ccccc2)NC(=O)N1` (stereo not drawn), the “hERG current change (%, negative = inhibition) at 1uM” value falls from 3.33% to 1.7%.

Going from `COc1ccc(-c2cc(-c3nnc(COC(=O)C4CC4C)o3)c3ccccc3n2)cc1OC` (stereo not drawn) to `COc1ccc(C(N)c2nccc3cc(OC)c(OC)cc23)cc1OC` (stereo not drawn), the “hERG current change (%, negative = inhibition) at 1uM” value rises from 1.46% to 8.89%.

First: O=C(CCN1C(=O)[C@@H]2Cc3ccccc3CN2C1=O)NCc1ccccc1Cl
Second: COc1ccccc1CNC(=O)CCCN1C(=O)COc2ccc(C)cc21
The “hERG current change (%, negative = inhibition) at 1uM” value of the first is higher: 18% for the first, -3.34% for the second.

Going from `Cc1ccc(-c2[nH]c3ccccc3c2C(C[N+](=O)[O-])c2ccco2)cc1` (stereo not drawn) to `Cc1ccc(-c2noc(CNS(=O)(=O)c3ccccc3)n2)cc1`, the “hERG current change (%, negative = inhibition) at 1uM” value rises from 13.6% to 13.7%.

Compared with `O=C(NCCN1CCOCC1)c1nn2c(c1Cl)NC(c1ccccc1)CC2C(F)(F)F` (stereo not drawn), `CN(Cc1ccccc1)C1CCCN(C(=O)c2ccc(Cl)s2)C1` (stereo not drawn) is higher in “hERG current change (%, negative = inhibition) at 1uM” value: -0.737% for the first, 7.85% for the second.

Compared with `O=C(c1ccccc1-c1ncc[nH]1)N1CCCC(Nc2ccc(F)cc2)C1` (stereo not drawn), `COc1cccc(NC(=O)N2CCCC(C(=O)Nc3ccccc3OC)C2)c1` (stereo not drawn) is lower in “hERG current change (%, negative = inhibition) at 1uM” value: 8.42% for the first, 0.911% for the second.

Going from `COc1cccc(CCNC(=O)CCc2nnc(Cc3cc(OC)ccc3OC)o2)c1` to `CCOc1ccc(CCNC(=O)CS(=O)Cc2nc(-c3ccccc3Cl)oc2C)cc1OCC` (stereo not drawn), the “hERG current change (%, negative = inhibition) at 1uM” value falls from 15.7% to 14.6%.

Compared with `CCC(Oc1cc(Cl)ccc1Cl)C(=O)NN1C(=O)C2C3CCC(C3=C(C)C)C2C1=O` (stereo not drawn), `Cc1cc(Cl)ccc1NC(=O)NC1CCN(S(=O)(=O)c2ccc(F)cc2)CC1` is lower in “hERG current change (%, negative = inhibition) at 1uM” value: 3.87% for the first, 2.31% for the second.

Going from `CCC(/C=N/NC(=O)c1ccccc1F)CC` to `CCOC(=O)N/N=C\c1ccc(OC/C=C/c2ccccc2)cc1`, the “hERG current change (%, negative = inhibition) at 1uM” value rises from 19.2% to 21.6%.

Compared with `O=C1C(=O)N(C2CCCC2)C(=O)N1Cc1c(F)cccc1Cl`, `CC/C(=N\NC(=O)C1CCCC1)c1cccc(Br)c1` is lower in “hERG current change (%, negative = inhibition) at 1uM” value: 17.2% for the first, 10.6% for the second.

First: C[C@H](NC(=O)c1[nH]cnc1C(=O)Nc1nccs1)c1ccccc1
Second: CC(C)c1nnc(NC(=O)CCC(=O)Nc2ccccc2)s1
The “hERG current change (%, negative = inhibition) at 1uM” value of the first is lower: 3.62% for the first, 12.1% for the second.

Going from `CCOC(=O)C1=C(C)NC(=O)NC1c1ccc(N2CCC(c3ccccc3)=N2)cc1` (stereo not drawn) to `CCOC(=O)c1ccccc1NC(=O)C1CC(=O)N(c2ccccc2)C1` (stereo not drawn), the “hERG current change (%, negative = inhibition) at 1uM” value rises from -6.03% to 9.81%.

Going from `Cc1ccc(OS(=O)(=O)c2cn(C)c(=O)n(C)c2=O)cc1C` to `Cc1ccc(C)c(NC(=O)c2cc([N+](=O)[O-])cc([N+](=O)[O-])c2)c1`, the “hERG current change (%, negative = inhibition) at 1uM” value rises from 4.07% to 13.4%.

Compared with `CCS(=O)(=O)N1Cc2ccccc2CC1C(=O)OCC(=O)Nc1ccc(C)cc1` (stereo not drawn), `Cc1cc(S(=O)(=O)N2CCCC2)ccc1OCC(=O)Nc1ccccc1` is higher in “hERG current change (%, negative = inhibition) at 1uM” value: -5.95% for the first, 17.7% for the second.

First: N/C(COc1ncn(-c2ccccc2)n1)=N\S(=O)(=O)c1ccc(Cl)cc1Cl
Second: CCC(=O)Nc1cccc(NC(=O)c2cc3ccccc3o2)c1
The “hERG current change (%, negative = inhibition) at 1uM” value of the first is lower: -2.41% for the first, 6.4% for the second.

First: CCOC(=O)c1ccc(NC(=O)Nc2ccc(OC)c(OC)c2)cc1
Second: Cc1noc(C)c1COc1ccc(C(=O)OCC(=O)NC2CCCCC2C)cc1 (stereo not drawn)
The “hERG current change (%, negative = inhibition) at 1uM” value of the first is lower: -7.78% for the first, 12.7% for the second.

Compared with `O=C(NCCc1ccccc1)C(=O)N/N=C/c1ccccc1C(F)(F)F`, `CC(C)[C@H](NC(=O)OCc1ccccc1)C(=O)NCc1ccccc1` is lower in “hERG current change (%, negative = inhibition) at 1uM” value: 13.8% for the first, 11.4% for the second.

First: C/C=C/CC1(CC)C(=O)NC(=S)NC1=O
Second: C=CCn1c(=O)n(CCC#N)c(=O)n(CCC#N)c1=O
The “hERG current change (%, negative = inhibition) at 1uM” value of the first is higher: 16.6% for the first, 11.8% for the second.

Going from `Cc1cccc(CSc2nnc3c(n2)[nH]c2ccccc23)c1` to `CCCCCn1c(=O)c(C(=O)Nc2cc(C)ccn2)c(O)c2ccccc21`, the “hERG current change (%, negative = inhibition) at 1uM” value rises from 9.89% to 17.6%.

Going from `CCOP(=O)(OCC)c1nc(Cc2ccccc2)oc1NCc1ccccc1` to `Cc1nc2cc(N3CCN(C)CC3)c(NC(=O)Cc3ccccc3)cc2c(=O)n1Cc1ccccc1`, the “hERG current change (%, negative = inhibition) at 1uM” value rises from 12.9% to 13.6%.

Going from `O=C(NCCO)C(c1ccccc1)c1ccccc1` to `CCCNC(=O)C1CN(S(=O)(=O)c2ccccc2)CCN1S(=O)(=O)c1ccccc1` (stereo not drawn), the “hERG current change (%, negative = inhibition) at 1uM” value rises from -1.15% to 9.18%.

Compared with `COc1ccc(CCC(C(O)C(F)(F)F)S(=O)c2ccccc2)cc1` (stereo not drawn), `COc1ccc(/C=C/C(=O)Nc2cc(C(F)(F)F)ccc2Cl)cc1` is lower in “hERG current change (%, negative = inhibition) at 1uM” value: 16.2% for the first, 12% for the second.

Going from `COCCNC(=O)c1ccc(N2CC3CC(C2)c2cccc(=O)n2C3)c(NC(=O)c2c(F)cccc2F)c1` (stereo not drawn) to `O=C(Nc1nc(-c2ccccc2)cs1)c1ccc2c(=O)n3c(nc2c1)CCCCC3`, the “hERG current change (%, negative = inhibition) at 1uM” value rises from 3.23% to 13.1%.

Going from `CC(=O)OCC1=C(C(=O)O)N2C(=O)C(NC(=O)C(C)Cn3cc(Cl)cn3)C2SC1` (stereo not drawn) to `CC(=O)CCc1c(C)nc2ccc(C(=O)O)cc2c1Cl`, the “hERG current change (%, negative = inhibition) at 1uM” value falls from 10.3% to 9.09%.

First: Cc1cccc(NS(=O)(=O)c2ccc(C(=O)NCC(c3ccco3)N3CCCCC3)cc2)c1C (stereo not drawn)
Second: Cc1ccc(C(=O)Nc2ccccc2N2CCCCC2)o1
The “hERG current change (%, negative = inhibition) at 1uM” value of the first is lower: 1.52% for the first, 9.19% for the second.

Going from `CC1Cc2ccccc2N1C(=O)CSc1nc2c(c(=O)n(C)c(=O)n2C)n1Cc1ccc(F)cc1` (stereo not drawn) to `CCOc1cccc2cc(C(=O)NCc3ccc(F)cc3)c(=N)oc12`, the “hERG current change (%, negative = inhibition) at 1uM” value rises from 8.8% to 10.8%.

Compared with `Cc1ccccc1OCC(=O)NN1CCN(C)CC1.Cl`, `CCOC(=O)C1CCCN(CC(=O)Nc2nc(-c3ccccc3)cs2)C1` (stereo not drawn) is higher in “hERG current change (%, negative = inhibition) at 1uM” value: 7.51% for the first, 13.3% for the second.

Going from `O=[N+]([O-])c1ccccc1-c1ccc(CN2CCN(c3ccccc3)CC2)o1` to `O=[N+]([O-])c1ccc(-n2cccc2/C=N/Nc2nc(N3CCCCC3)nc(N3CCCCC3)n2)cc1`, the “hERG current change (%, negative = inhibition) at 1uM” value rises from 4.79% to 11.6%.

Compared with `Cn1c(C(=O)N2CCN(C(=O)c3ccco3)CC2)cc2c(=O)n3ccccc3nc21`, `O=C(Cn1c(=O)oc2cc(S(=O)(=O)N3CCCC3)ccc21)N1CCc2ccccc2C1` is lower in “hERG current change (%, negative = inhibition) at 1uM” value: 2.19% for the first, 1.68% for the second.

Going from `COc1ccccc1CN1CCNC(=O)C1CC(=O)N(C)Cc1ccon1` (stereo not drawn) to `CC(C)N1CCC(N2CCN(Cc3cc(F)ccc3-n3cccn3)CC2CCO)CC1` (stereo not drawn), the “hERG current change (%, negative = inhibition) at 1uM” value falls from 16.3% to 1.05%.

Going from `O=C(/C=C/c1ccc(Cl)cc1)NC(=S)NN1CCCCC1c1cccnc1` (stereo not drawn) to `O=C(c1cc(-c2ccc(Cl)cc2Cl)on1)N1CCCCCC1`, the “hERG current change (%, negative = inhibition) at 1uM” value rises from -35.6% to 6.5%.

Compared with `COc1cccc(OCCCn2cc(/C=C3/C(=N)N4C=C(C)SC4=NC3=O)c3ccccc32)c1`, `COCCN(CC(=O)Nc1cccc(C)c1C)C(=O)c1cc2c(s1)CCC2` is higher in “hERG current change (%, negative = inhibition) at 1uM” value: 12.3% for the first, 23.4% for the second.

Compared with `Cc1cc(C)c(S(=O)(=O)N2CCN(C(=O)C(C)Cn3nc(C)nc3C)CC2)c(C)c1` (stereo not drawn), `Cc1cc(C)c(C#N)c(SCC(=O)N2CCCCC2)n1` is higher in “hERG current change (%, negative = inhibition) at 1uM” value: 12.6% for the first, 13.4% for the second.

Going from `Nc1cc(=O)[nH]c(SCC(=O)N2CCCCC2)n1` to `CC1CN(CC(=O)Nc2ccc(Br)cn2)CC(C)O1` (stereo not drawn), the “hERG current change (%, negative = inhibition) at 1uM” value falls from 22.3% to 15.1%.

For `CC(/C=C/c1ccccc1)=N/O`, the “hERG current change (%, negative = inhibition) at 1uM” value was 10.8%.
